# Measured values published in the supplement of paper PMC8728848.
# Some of the results follow.
# B1: ASAL (Allium sativum), P83886 (protein)
# chain: MGRTTSSPKAMMRIATVAAILTILASTCMARNVLTNGEGLYAGQSLDVEQYKFIMQDDCNLVLYEYSTPIWASNTGVTGKNGCRAVMQRDGNFVVYDVNGRPVWASNSVRGNGNYILVLQKDRNVVIYGSDIWSTGTYRRSVGGAVVMAMNGTVDGGSVIGPVVVNQNVTAAIRKVGTGAA
# Key:
# Test in all cases: glycan array binding signal (z-score within array); higher = stronger binding
# Settings in all cases: glycan notation: IUPAC condensed, linker removed
# [1] = target: Gal(b1-3)GlcNAc(b1-3)Gal(b1-4)[Fuc(a1-3)]GlcNAc(b1-6)[Gal(b1-3)GlcNAc(b1-3)]Gal(b1-4)Glc
# Procedure, shortened: (§1)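 Glycan array data were curated from 3228 arrays in the Consortium for Functional Glycomics database and kept only where the protein sequence was available. Glycan names were converted to IUPAC-condensed notation, and columns mapping to the same glycan were averaged. The binding signal is a within-array Z-score, averaged across arrays of the same protein sequence at different concentrations or buffers and across linkers. Negative Z-scores can be read as non-binding.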
# [2] = target: Gal(b1-3)GlcNAc(b1-3)GalNAc
# Procedure, shortened: as §1
# [3] = target: Gal(b1-3)GlcNAc(b1-6)Gal(b1-4)GlcNAc
# Procedure, shortened: as §1
# [4] = target: Gal(b1-3)[Fuc(a1-4)]GlcNAc
# Procedure, shortened: as §1
# [5] = target: Gal(b1-3)[Fuc(a1-4)]GlcNAc(b1-2)Man(a1-3)[Gal(b1-3)[Fuc(a1-4)]GlcNAc(b1-2)Man(a1-6)]Man(b1-4)GlcNAc(b1-4)GlcNAc
# Procedure, shortened: as §1
# [6] = target: Gal(b1-3)[Fuc(a1-4)]GlcNAc(b1-2)Man(a1-3)[Gal(b1-3)[Fuc(a1-4)]GlcNAc(b1-2)Man(a1-6)]Man(b1-4)GlcNAc(b1-4)[Fuc(a1-6)]GlcNAc
# Procedure, shortened: as §1
# [7] = target: Gal(b1-3)[Fuc(a1-4)]GlcNAc(b1-3)Gal(b1-3)[Fuc(a1-4)]GlcNAc
# Procedure, shortened: as §1
# [8] = target: Gal(b1-3)[Fuc(a1-4)]GlcNAc(b1-3)Gal(b1-4)GlcNAc
# Procedure, shortened: as §1
# [9] = target: Gal(b1-3)[Fuc(a1-4)]GlcNAc(b1-3)Gal(b1-4)[Fuc(a1-3)]GlcNAc
# Procedure, shortened: as §1
# [10] = target: Gal(b1-3)[GlcNAc(b1-6)]GalNAc
# Procedure, shortened: as §1
# [11] = target: Gal(b1-3)[Neu5Ac(a2-6)]GalNAc
# Procedure, shortened: as §1
# [12] = target: Gal(b1-3)[Neu5Ac(a2-6)]GlcNAc(b1-6)Gal(b1-4)Glc
# Procedure, shortened: as §1
# [13] = target: Gal(b1-3)[Neu5Ac(b2-6)]GalNAc
# Procedure, shortened: as §1
# Gal(b1-4)Gal = target: Gal(b1-4)Gal
# Procedure, shortened: as §1
# [14] = target: Gal(b1-4)GalNAc(a1-3)[Fuc(a1-2)]Gal(b1-4)GlcNAc
# Procedure, shortened: as §1
# [15] = target: Gal(b1-4)GalNAc(b1-3)[Fuc(a1-2)]Gal(b1-4)GlcNAc
# Procedure, shortened: as §1
# Gal(b1-4)Glc = target: Gal(b1-4)Glc
# Procedure, shortened: as §1
# Gal(b1-4)Glc6S = target: Gal(b1-4)Glc6S
# Procedure, shortened: as §1
# Gal(b1-4)GlcNAc = target: Gal(b1-4)GlcNAc
# Procedure, shortened: as §1
# [16] = target: Gal(b1-4)GlcNAc(a1-6)Gal(b1-4)GlcNAc
# Procedure, shortened: as §1
# [17] = target: Gal(b1-4)GlcNAc(b1-2)Man(a1-3)Man(b1-4)GlcNAc(b1-4)GlcNAc
# Procedure, shortened: as §1
# [18] = target: Gal(b1-4)GlcNAc(b1-2)Man(a1-3)[Gal(b1-4)GlcNAc(b1-2)Man(a1-6)]Man(b1-4)GlcNAc(b1-4)GlcNAc
# Procedure, shortened: as §1
# [19] = target: Gal(b1-4)GlcNAc(b1-2)Man(a1-3)[Gal(b1-4)GlcNAc(b1-2)Man(a1-6)]Man(b1-4)GlcNAc(b1-4)[Fuc(a1-6)]GlcNAc
# Procedure, shortened: as §1
# [20] = target: Gal(b1-4)GlcNAc(b1-2)Man(a1-3)[Gal(b1-4)GlcNAc(b1-2)][GlcNAc(b1-4)]Man(b1-4)GlcNAc(b1-4)GlcNAc
# Procedure, shortened: as §1
# [21] = target: Gal(b1-4)GlcNAc(b1-2)Man(a1-3)[GlcNAc(b1-2)Man(a1-6)]Man(b1-4)GlcNAc(b1-4)GlcNAc
# Procedure, shortened: as §1
# [22] = target: Gal(b1-4)GlcNAc(b1-2)Man(a1-3)[Man(a1-6)]Man(b1-4)GlcNAc(b1-4)GlcNAc
# Procedure, shortened: as §1
# [23] = target: Gal(b1-4)GlcNAc(b1-2)Man(a1-6)Man(b1-4)GlcNAc(b1-4)GlcNAc
# Procedure, shortened: as §1
# [24] = target: Gal(b1-4)GlcNAc(b1-2)Man(a1-6)[GlcNAc(b1-2)Man(a1-3)]Man(b1-4)GlcNAc(b1-4)GlcNAc
# Procedure, shortened: as §1
# [25] = target: Gal(b1-4)GlcNAc(b1-2)Man(a1-6)[Man(a1-3)]Man(b1-4)GlcNAc(b1-4)GlcNAc
# Procedure, shortened: as §1
# [26] = target: Gal(b1-4)GlcNAc(b1-2)[Gal(b1-4)GlcNAc(b1-4)]Man(a1-3)[Gal(b1-4)GlcNAc(b1-2)Man(a1-6)]Man(b1-4)GlcNAc(b1-4)GlcNAc
# Procedure, shortened: as §1
# [27] = target: Gal(b1-4)GlcNAc(b1-2)[Gal(b1-4)GlcNAc(b1-4)]Man(a1-3)[Gal(b1-4)GlcNAc(b1-2)[Gal(b1-4)GlcNAc(b1-6)]Man(a1-6)]Man(b1-4)GlcNAc(b1-4)GlcNAc
# Procedure, shortened: as §1
# [28] = target: Gal(b1-4)GlcNAc(b1-2)[Gal(b1-4)GlcNAc(b1-4)]Man(a1-3)[GlcNAc(b1-4)][Gal(b1-4)GlcNAc(b1-2)Man(a1-6)]Man(b1-4)GlcNAc(b1-4)GlcNAc
# Procedure, shortened: as §1
# [29] = target: Gal(b1-4)GlcNAc(b1-2)[Gal(b1-4)GlcNAc(b1-6)]Man(a1-6)[GlcNAc(b1-4)][Gal(b1-4)GlcNAc(b1-2)Man(a1-3)]Man(b1-4)GlcNAc(b1-4)GlcNAc
# Procedure, shortened: as §1
# [30] = target: Gal(b1-4)GlcNAc(b1-3)Gal(b1-3)GlcNAc
# Procedure, shortened: as §1
# [31] = target: Gal(b1-4)GlcNAc(b1-3)Gal(b1-4)Glc
# Procedure, shortened: as §1
# [32] = target: Gal(b1-4)GlcNAc(b1-3)Gal(b1-4)GlcNAc
# Procedure, shortened: as §1
# [33] = target: Gal(b1-4)GlcNAc(b1-3)Gal(b1-4)GlcNAc(b1-3)Gal(b1-4)GlcNAc
# Procedure, shortened: as §1
# [34] = target: Gal(b1-4)GlcNAc(b1-3)Gal(b1-4)[Fuc(a1-3)GlcNAc(b1-6)]Gal(b1-4)Glc
# Procedure, shortened: as §1
# [35] = target: Gal(b1-4)GlcNAc(b1-3)Gal(b1-4)[Fuc(a1-3)]GlcNAc(b1-3)Gal(b1-4)[Fuc(a1-3)]GlcNAc
# Procedure, shortened: as §1
# [36] = target: Gal(b1-4)GlcNAc(b1-3)GalNAc
# Procedure, shortened: as §1
# [37] = target: Gal(b1-4)GlcNAc(b1-3)[Gal(b1-4)GlcNAc(b1-6)]Gal(b1-4)GlcNAc
# Procedure, shortened: as §1
# [38] = target: Gal(b1-4)GlcNAc(b1-3)[Gal(b1-4)GlcNAc(b1-6)]GalNAc
# Procedure, shortened: as §1
# [39] = target: Gal(b1-4)GlcNAc(b1-3)[GlcNAc(b1-6)]Gal(b1-4)GlcNAc
# Procedure, shortened: as §1
# [40] = target: Gal(b1-4)GlcNAc(b1-6)Gal(b1-4)GlcNAc
# Procedure, shortened: as §1
# [41] = target: Gal(b1-4)GlcNAc(b1-6)GalNAc
# Procedure, shortened: as §1
binder,measurement,setting,value
B1,glycan array binding signal (z-score),[1],-0.22
same,glycan array binding signal (z-score),[2],-0.178
same,glycan array binding signal (z-score),[3],-0.197
same,glycan array binding signal (z-score),[4],-0.237
same,glycan array binding signal (z-score),[5],-0.065
same,glycan array binding signal (z-score),[6],0.767
same,glycan array binding signal (z-score),[7],-0.06
same,glycan array binding signal (z-score),[8],-0.286
same,glycan array binding signal (z-score),[9],-0.218
same,glycan array binding signal (z-score),[10],-0.267
same,glycan array binding signal (z-score),[11],-0.233
same,glycan array binding signal (z-score),[12],-0.203
same,glycan array binding signal (z-score),[13],-0.291
same,glycan array binding signal (z-score),Gal(b1-4)Gal,-0.254
same,glycan array binding signal (z-score),[14],-0.228
same,glycan array binding signal (z-score),[15],-0.247
same,glycan array binding signal (z-score),Gal(b1-4)Glc,-0.256
same,glycan array binding signal (z-score),Gal(b1-4)Glc6S,-0.263
same,glycan array binding signal (z-score),Gal(b1-4)GlcNAc,-0.227
same,glycan array binding signal (z-score),[16],-0.293
same,glycan array binding signal (z-score),[17],6.55
same,glycan array binding signal (z-score),[18],5.54
same,glycan array binding signal (z-score),[19],7.04
same,glycan array binding signal (z-score),[20],-0.228
same,glycan array binding signal (z-score),[21],5.91
same,glycan array binding signal (z-score),[22],7.21
same,glycan array binding signal (z-score),[23],-0.251
same,glycan array binding signal (z-score),[24],2.1
same,glycan array binding signal (z-score),[25],0.085
same,glycan array binding signal (z-score),[26],2.32
same,glycan array binding signal (z-score),[27],3.4
same,glycan array binding signal (z-score),[28],-0.138
same,glycan array binding signal (z-score),[29],-0.211
same,glycan array binding signal (z-score),[30],-0.285
same,glycan array binding signal (z-score),[31],-0.267
same,glycan array binding signal (z-score),[32],-0.23
same,glycan array binding signal (z-score),[33],-0.287
same,glycan array binding signal (z-score),[34],-0.262
same,glycan array binding signal (z-score),[35],-0.266
same,glycan array binding signal (z-score),[36],-0.23
same,glycan array binding signal (z-score),[37],-0.305
same,glycan array binding signal (z-score),[38],-0.255
same,glycan array binding signal (z-score),[39],-0.281
same,glycan array binding signal (z-score),[40],-0.283
same,glycan array binding signal (z-score),[41],-0.22
